Data taken from PubChem BioAssay AID504466 (National Center for Advancing Translational Sciences (NCATS), 2011).
Among all 330,000 compounds or so, about 4,200 (1.3%) were called active. Inconclusive means that the source gave no clear call. Such entries were picked first, then a sample of the others. Calls come from the whole dose curve; as a rule, active = well fitted activation curve with a large enough effect; inconclusive = small, poorly fitted or top-dose-only effect; inactive = no such curve, though single readings can be large or run the other way. Potencies of inconclusive entries are doubtful fits and often do not repeat.

Experiment: qHTS screen for small molecules that induce genotoxicity in human embryonic kidney (HEK293T) cells expressing luciferase-tagged ELG1; note: nearly all actives have a fitted effect of over 60% in size
Conditions: HEK293T ELG1-luciferase reporter, luminescence, 16 h; series mostly up to 46 µM
Method in brief: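 Luminescence read-out: rising ELG1-luciferase signal, reflecting elevated ELG1 protein under genetic stress, flags genotoxic compounds. Cells were treated for 16 hr at 37 °C before ONE-Glo detection.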
Potency is the fitted concentration of half-maximal effect; tags give direction and shape of the fitted curve.

SMILES	Potency
O=C(N/N=C/c1cn(-c2ccccc2)nc1-c1cc2ccccc2o1)c1ccncc1	inconclusive: 1.46 µM [activator, partial curve]
N/C(=N\OC(=O)/C=C/c1ccccc1)c1ccccc1	active: 8.2 µM
COc1cc(OC)cc(C(=O)NC(C)CNc2ccc(Cl)cc2[N+](=O)[O-])c1 (centres undefined)	inactive
CCOc1ccccc1NC(=O)Nc1ccc2c(c1)CCC2	inconclusive: 10.3 µM [activator, partial curve, poor fit]
Cc1c(C(=O)Nc2nc3ccccc3[nH]2)oc2ccc(Br)cc12	inconclusive: 13 µM [activator, partial curve, poor fit]
Cc1nn(C)cc1C(C)NC(=O)c1cc(COc2cccc3cnccc23)on1 (centres undefined)	inactive
Cc1c(C(=O)Nc2ccccn2)oc2c(Cl)cccc12	active: 5.17 µM
Cn1c(NN)nc2sc3c(c2c1=O)CCC3	inconclusive: 29.1 µM [activator, single point]
COc1ccc(OC)c(-c2nnc3n2N=C(c2ccc(OC)c(OC)c2)CS3)c1	inconclusive: 1.46 µM [activator, full curve, poor fit]
COc1ccc(-c2nc(CSCC(=O)NC3CCCc4ccccc43)c(C)o2)cc1OC (centres undefined)	inactive
CSc1ccc(CN(C)C(=O)c2cccc(S(=O)(=O)N3CCN(Cc4ccccc4)CC3)c2)cc1	inconclusive: 25.9 µM [activator, single point]
Cc1ccc(NC(=O)c2ccco2)cc1C	inconclusive: 5.8 µM [activator, partial curve]
O=C(O)c1cc(S(=O)(=O)Nc2ccc3c(c2)OCCO3)c(Cl)cc1Cl	active: 9.2 µM
O=[N+]([O-])c1ccccc1/C=C/c1ccc2ccccc2n1	inconclusive: 2.06 µM [activator, partial curve]
Cc1nn(-c2ccc3ccccc3c2)c(=O)c2ccccc12	inconclusive: 6.51 µM [activator, partial curve, poor fit]
NC(=O)COc1ccc2oc(-c3ccccc3)cc(=O)c2c1	inconclusive: 9.2 µM [activator, partial curve]
CN(C(=O)/C=C/c1ccc([N+](=O)[O-])s1)c1ccccc1	inactive
Cn1c(CSc2ccccc2)c(C#N)c2ccccc21	inconclusive: 16.4 µM [activator, partial curve, poor fit]
COc1ccc(Br)cc1/C=C/C(=O)Nc1ccc2ccccc2c1	inactive
Clc1ccccc1/C=C/c1nc(-c2cccnc2)no1	inconclusive: 3.66 µM [activator, partial curve]
O=C(Nc1nc(-c2ccccc2)cs1)c1ccc2c(c1)S(=O)(=O)c1ccccc1C2=O	inconclusive: 29.1 µM [activator, single point]
CN(C)C(=O)c1cc(C(=O)c2ccc(Cl)cc2Cl)c[nH]1	inactive
COc1cccc(CC(NC(C)=O)C(=O)NC2CCN(S(=O)(=O)c3ccc(F)cc3)CC2)c1OC (centres undefined)	inactive

SMILES	Potency
Cc1ccc(/C=N/Nc2ccc(C(=O)O)cc2)o1	inconclusive: 3.26 µM [activator, partial curve, poor fit]
O=C(CNc1ccc2ccccc2c1)N/N=C/C=C/c1cccc([N+](=O)[O-])c1	inconclusive: 32.6 µM [activator, partial curve, poor fit]
COc1ccc(C(C[N+](=O)[O-])c2c(-c3ccccc3)cc3ccccn23)c(OC)c1 (centres undefined)	inconclusive: 18.4 µM [activator, partial curve]
O=C(CSc1nc2ccccc2s1)N/N=C/c1ccccc1C(=O)O	inconclusive: 9.2 µM [activator, partial curve]
Cc1c(C#N)c(N)nc2c3c(sc12)NC(=O)CC3c1ccc(F)cc1 (centres undefined)	inconclusive: 13 µM [activator, partial curve]
O=C(COC(=O)Cc1ccc(Br)cc1)NCc1ccc(F)cc1	inactive
COc1ccc2oc(=N)c(C(=O)Nc3ccccc3Cl)cc2c1	inconclusive: 1.83 µM [activator, full curve, poor fit]
CCCOc1ccccc1/C=C(\C#N)C(=O)Nc1cccnc1	inconclusive: 23.1 µM [activator, partial curve, poor fit]
Cc1ccc(CSCC(=O)Nc2ccccc2F)cc1	inconclusive: 14.6 µM [activator, partial curve, poor fit]
COC(=O)c1ccc(NC(=O)C(=O)c2cccn2C)cc1	inconclusive: 0.651 µM [activator, partial curve]
O=S(=O)(c1ccc2ccccc2c1)N1CCN(S(=O)(=O)c2c(F)cccc2F)CC1	inconclusive: 18.3 µM [activator, partial curve]
Cc1cccc(-n2ncc3c(N4CCC5(CC4)OCCO5)ncnc32)c1	inconclusive: 7.3 µM [activator, partial curve, poor fit]
Cc1ccc(C)c(OCc2cc(C(=O)N3CCN(C(=O)c4ccco4)CC3)no2)c1	inconclusive: 5.17 µM [activator, full curve, poor fit]
O=C(COc1ccccc1Cl)Nc1cc(NC(=O)COc2ccccc2Cl)cc(C(=O)O)c1	inconclusive: 20.6 µM [activator, single point]
O=C(Nc1ccccc1)N(CCN1CCOCC1)Cc1ccccc1F	inconclusive: 16.4 µM [activator, partial curve]
Cc1ccnc(NC(=O)Nc2cccc(F)c2)c1	active: 0.92 µM
O=C(CCN1C(=O)C2CCCCC2C1=O)Nc1nc2ccc(F)cc2s1 (centres undefined)	inconclusive: 2.31 µM [activator, full curve]
CN1C(=O)c2ccc(C(=O)Nc3ccc4c(c3)OCO4)cc2C1=O	inconclusive: 16.4 µM [activator, partial curve, poor fit]
O=C(C[C@@H]1C/C=C/CC[C@H](Cc2ccc(F)cc2)C(=O)OC[C@@H](Cc2ccccc2)NC1=O)N[C@H](CO)Cc1ccccc1	inconclusive: 20.6 µM [activator, single point]
Cc1ccc(OCCNC(=O)c2ccc3c(c2)OCO3)cc1	inconclusive: 23.1 µM [activator, single point]
CC(=O)Nc1c(-c2ccc3ccccc3c2)nc2ccccn12	active: 20.6 µM
CCC(=O)Nc1c(C(=O)Nc2ccc3c(c2)OCCO3)oc2ccccc12	inactive
COc1cccc(/C=N/Nc2ccccc2C(=O)O)c1O	active: 4.11 µM

SMILES	Potency
CC(=O)Nc1cc(C(=O)NCc2ccco2)ccc1Sc1ccc(C)cc1	inactive
Nc1ccc(C(=O)Nc2ccccc2C(=O)O)cc1	inconclusive: 29.1 µM [activator, single point]
N/C(=N\OC(=O)c1ccccc1Cl)c1ccc(Cl)cc1	active: 2.59 µM
CCOc1ccc(NC(=O)CCC(=O)NNC(=O)Nc2cccc(Cl)c2)cc1	inconclusive: 20.6 µM [activator, single point]
Cc1ccc(OC(=O)COc2ccccc2C)c(-n2nc3ccccc3n2)c1	inconclusive: 20.6 µM [activator, partial curve]
COc1cccc(C(=O)N/N=C(\C)c2ccc(NC(=O)Cc3ccccc3)cc2)c1OC	inconclusive: 32.6 µM [activator, partial curve, poor fit]
O=C(NCCc1ccccc1)c1ccc(-c2ccccc2C(F)(F)F)o1	inactive
O=C(Nc1ccccn1)c1sc2cccc(F)c2c1Cl	inconclusive: 8.2 µM [activator, partial curve, poor fit]
CCc1ccc(C(=O)COC(=O)[C@@H](NC(N)=O)[C@@H](C)CC)cc1	inconclusive: 18.3 µM [activator, partial curve, poor fit]
O=C(N/N=C/c1ccccc1Cl)c1ccc(F)cc1	inconclusive: 7.31 µM [activator, partial curve]
COc1cccc(-c2cc(=O)c3cc(NC(C)=O)ccc3[nH]2)c1	inconclusive: 29.1 µM [activator, partial curve, poor fit]
O=C(NCCc1ccc(O)cc1)c1ccc(Cl)cc1	inconclusive: 18.4 µM [activator, partial curve]
COc1ccc(OC)c(/C(C)=N/Nc2ccc(C(=O)O)cc2)c1	inconclusive: 16.4 µM [activator, single point]
Cc1cc(C)n2nc(C(=O)Nc3ccc4c(c3)OCO4)cc2n1	active: 2.06 µM
COc1ccccc1C(=O)NNC(=O)c1ccccc1	active: 8.2 µM
Cc1cccc(NC(=O)COc2ccc(Br)cc2/C=N/O)c1	inconclusive: 11.6 µM [activator, partial curve]
Clc1ccc2[nH]c3c(NCC4CCCO4)ncnc3c2c1 (centres undefined)	inactive
Nc1ccc2c(c1)C/C(=C/c1ccco1)C2=O	active: 20.6 µM
CC(=O)c1ccccc1NC(=O)COC(=O)C1=NN(c2ccccc2)C(=O)CC1	inactive
CSCCC(NS(=O)(=O)c1ccc2c(c1)oc(=O)n2C)C(=O)NCc1ccc(C)cc1 (centres undefined)	inconclusive: 25.9 µM [activator, partial curve, poor fit]
c1ccc(-c2nnc(-c3ccccc3)nn2)cc1	inconclusive: 4.11 µM [activator, full curve]
Cc1ccc(C(=O)N/C(=C\c2ccccc2)C(=O)OCc2ccccc2)cc1	inconclusive: 29.1 µM [activator, partial curve, poor fit]
O=C(Cn1cnc2ccccc21)N1CCN(S(=O)(=O)c2ccccc2)CC1	inactive
